Data from publication PMC3166162, “A Dual Binding Mode for RhoGTPases in Plexin Signalling” (PLoS Biology, 2011).

What was measured:
[1] = biological target: T1, Rac1* (Rac1 Gln61Leu, residues 1-176, loaded with GppNHp) (human, UniProt P63000, Gln61Leu); assay: SPR; Biacore T100, 25°C, standard buffer with 0.05% (v/v) Tween 20; biotinylated plexin constructs on streptavidin surfaces (500-5,000 RU); RhoGTPase injected, 120 nM to 500 µM; equilibrium responses fitted to a 1:1 Langmuir model; settings: both partners purified
[2] = biological target: T1, Rac1* (Rac1 Gln61Leu, residues 1-176, …); assay: SPR; as a1, high coupling density: 5,000 RU of the plexin construct loaded on the chip; RhoGTPase 120 nM to 2,000 µM; settings: both partners purified

B1: Plexin-B1_(cyto) Thr1920Glu (domain or fragment)
chain: not shown
modifications: biotin, added enzymatically within the engineered C-terminal tag
notes: human Plexin-B1, cytoplasmic region, […]; also called Thr1920Glu^Plex; site B mutant; source: HEK 293T cells, transfected, purified; not shown: engineered tag for enzymatic biotinylation, C-terminal, kept
Question: Does B1 bind [1]?
Answer: binds

B2: Plexin-B1_(cyto) Arg1921Ala (domain or fragment)
chain: not shown
modifications: biotin, added enzymatically within the engineered C-terminal tag
notes: human Plexin-B1, cytoplasmic region, […]; also called Arg1921Ala^Plex; site B mutant; source: HEK 293T cells, transfected, purified; not shown: engineered tag for enzymatic biotinylation, C-terminal, kept
Question: Does B2 bind [1]?
Answer: binds

B3: Plexin-B1_(cyto) Leu2036Arg (domain or fragment)
chain: not shown
modifications: biotin, added enzymatically within the engineered C-terminal tag
notes: human Plexin-B1, cytoplasmic region, […]; also called Leu2036Arg^Plex; site B mutant; source: HEK 293T cells, transfected, purified; not shown: engineered tag for enzymatic biotinylation, C-terminal, kept
Question: Does B3 bind [1]?
Answer: binds

B4: Plexin-B1Δ2 Leu1815Glu (domain or fragment)
chain: not shown
modifications: biotin, added enzymatically within the engineered C-terminal tag
notes: human Plexin-B1, cytoplasmic region lacking the N-terminal helix, […]; also called site A Plexin-B1Δ2 mutant Leu1815Glu^Plex; source: HEK 293T cells, transfected, purified; not shown: engineered tag for enzymatic biotinylation, C-terminal, kept
Question: Does B4 bind [2]?
Answer: binds
